Data: the supplement of paper PMC12217912
The other results are listed elsewhere or left out. Sequences were assembled here from the parent chain. Inactive controls read about 0.05.

B1: TEV protease; numbered along this chain (parent)
chain: MGESLFKGPRDYNPISSSICHLTNESDGHTTSLYGIGFGPFIITNKHLFRRNNGTLVVQSLHGVFKVKDTTTLQQHLVDGRDMIIIRMPKDFPPFPQKLKFREPQREERICLVTTNFQTKSMSSMVSDTSCTFPSGDGIFWKHWIQTKDGQCGSPLVSTRDGFIVGIHSASNFTNTNNYFTSVPKNFMELLTNQEAQQWVSGWRLNADSVLWGGHKVFMVKPEEPFQPVKEATQL

Variants of: B1
Experiment: raw area under fraction-flipped curve 0-4 h after induction (AUC4h, not background-subtracted), DNA-recorder readout of cleavage of the substrate (dimensionless); higher = more cleavage of the substrate by the protease variant
Settings: temperature: 34 °C; time window: 0-4 h after rhamnose induction
Procedure: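 In vivo DNA recorder in E. coli TOP10(DE3) ΔrhaA at 34 °C. Each TEVp single-site mutant (parent TEVp 0) is paired with a single-site variant of the 7-mer TEVs (canonical ENLYFQ|S). The substrate sits between flexible linkers in a Bxb1-sfGFP-TEVs-SsrA fusion, so cleavage stabilises Bxb1 and speeds flipping of a recombination array, read by NGS. The value is the raw area under the fraction-flipped curve over 0-4 h after rhamnose induction (AUC4h), with ≥20 reads per time point. It is not background-subtracted; inactive controls average about 0.047.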
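Further: Bxb1 expression induced with 0.2% (w/v) L-rhamnose at OD600 near 0.5, cultures sampled hourly, flipped fraction per protease–substrate barcode pair counted by paired-end Illumina sequencing.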

Variant | area with substrate ENAYFQS | area with substrate ENCYFQS | area with substrate ENDYFQS | area with substrate ENEYFQS | area with substrate ENFYFQS | area with substrate ENGYFQS | area with substrate ENHYFQS | area with substrate ENKYFQS | area with substrate ENMYFQS | area with substrate ENNYFQS | area with substrate ENPYFQS | area with substrate ENQYFQS | area with substrate ENRYFQS | area with substrate ENSYFQS | area with substrate ENTYFQS | area with substrate ENVYFQS | area with substrate ENWYFQS | area with substrate ENYYFQS | area with substrate ENIYFQS
Q75H | 0.048 | 0.0594 | 0.0558 | 0.0587 | 0.0613 | 0.0701 | 0.0618 | 0.0599 | 0.0521 | 0.0615 | 0.0771 | 0.0798 | 0.0587 | 0.0685 | 0.0559 | 0.0582 | 0.0529 | 0.0579 | –
Q75T | 0.0813 | 0.0646 | 0.0783 | 0.0325 | 0.0703 | – | 0.0577 | 0.0726 | – | 0.036 | – | 0.0495 | 0.0701 | 0.116 | 0.0692 | 0.0846 | – | – | –
L77M | 0.0572 | 0.0525 | – | 0.0664 | 0.0757 | 0.0582 | 0.0588 | – | – | 0.0721 | 0.0643 | 0.0646 | – | 0.0612 | 0.0622 | 0.0608 | – | 0.061 | –
V78K | 0.0457 | 0.0597 | 0.0593 | 0.0523 | 0.0512 | – | 0.0506 | – | 0.0535 | 0.0636 | 0.0498 | 0.0437 | – | 0.0631 | 0.034 | 0.0604 | 0.0409 | 0.0398 | –
V78M | 0.0556 | 0.0546 | 0.0482 | 0.0583 | 0.0622 | 0.0537 | – | 0.0536 | 0.0799 | 0.063 | 0.0928 | 0.0426 | 0.0519 | 0.054 | – | 0.0701 | – | – | –
V78T | 0.0448 | – | 0.044 | 0.0464 | 0.0622 | – | 0.0582 | – | – | – | – | 0.0497 | 0.0423 | – | – | 0.0875 | – | – | 0.105
G80F | 0.065 | 0.0724 | 0.0612 | 0.0593 | – | 0.0729 | – | 0.0875 | 0.0634 | 0.0457 | – | – | 0.0804 | 0.0618 | 0.0717 | 0.0629 | 0.0472 | – | –
G80Y | 0.0606 | – | 0.0687 | 0.0518 | – | – | 0.0467 | – | 0.0767 | – | – | 0.0764 | 0.0386 | 0.0659 | 0.0634 | – | – | – | –
D82I | 0.0462 | 0.065 | – | 0.0492 | – | – | – | – | – | 0.0524 | – | – | 0.0509 | – | – | 0.0506 | – | 0.0576 | –
M83Q | 0.0551 | 0.0675 | 0.065 | 0.055 | – | 0.0586 | 0.0614 | – | – | 0.0441 | 0.0575 | 0.0597 | 0.0529 | 0.0533 | 0.0659 | 0.0611 | – | – | –
M83V | 0.0465 | – | – | – | – | – | – | – | 0.0619 | 0.0619 | 0.0582 | – | 0.0721 | – | 0.0702 | – | 0.0536 | – | 0.0833
I85G | 0.0557 | 0.0405 | 0.0486 | 0.0532 | – | – | – | 0.0735 | – | 0.0534 | 0.0539 | 0.0485 | – | 0.0444 | 0.0481 | – | 0.0389 | 0.0551 | –
I86G | 0.0287 | – | – | 0.0576 | 0.0445 | – | – | – | 0.0469 | – | 0.0385 | 0.0411 | 0.0247 | – | 0.0425 | 0.0298 | – | – | 0.035
I86Y | 0.0577 | 0.0538 | – | – | 0.0645 | – | – | – | – | – | 0.0558 | 0.0549 | – | 0.062 | 0.0536 | – | – | – | –
R87G | 0.0445 | – | – | 0.0111 | – | 0.0553 | – | – | – | 0.0414 | 0.0514 | 0.0591 | 0.0939 | – | – | – | 0.0041 | – | –
